# According to article PMC12136788:
# Where a chain is given by its changes, count along the chain named. The list shows a part of the results.
# T1: UNK ZnF1-3 (human, UniProt Q9C0B0 31-174)
# T1 sequence: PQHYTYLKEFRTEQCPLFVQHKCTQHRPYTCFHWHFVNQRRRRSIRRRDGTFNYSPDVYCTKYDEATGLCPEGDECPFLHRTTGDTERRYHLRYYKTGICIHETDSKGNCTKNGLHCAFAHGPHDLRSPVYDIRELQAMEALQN
# B1: chr7:141445308:141445309:+_ENSG00000106028_ENST00000265304|hu_hu|hu_hu_hu_mus_False|8_68 (ssRNA)
# RNA: GGGAGUUCUACAGUCCGACGAUCUAUGAUUGUUGUUGCUUGCCGCCUCACAUUGUUUUUAUCCAUGUAUUCACCAUAGUCCACUUUCCCUUCCACAAAUAUACGAGCCCCCUUUUUCACAUACUGAUAUGCCACGUCUCUGAGCAACAGAGGAUUGAGCAUCA
# B2: chr1:39494447:39494448:+_ENSG00000168653_ENST00000372967|hu_mus|hu_hu_hu_mus_False|8_108 (ssRNA)
# RNA: GGGAGUUCUACAGUCCGACGAUCGCAUCGACCAGCCUUCUUAUAGGGCUGUUCUGCGCUUAGGAACAUAAAGUGCCGGUCCAGGCUGAUGCCCAGCUUUUUCUGUAUGUCAAGGAAAGGCAUGGCUGAUGCUCGUGCUUGUCACAACAGAGGAUUGAGCAUCA
# B3: chr1:58468927:58468928:-_ENSMUSG00000026034_ENSMUST00000148330|mus_mus|mus_mus_mus_hu_False|48_88 (ssRNA)
# RNA: GGGAGUUCUACAGUCCGACGAUCAAUUACUGAAAAAGAUGUUCAUUUAUUUGGUUUUGUACUUAAUGAACCAAAUUACCCAAACAACAUAAAAUGUGCAAUAUAAAAAUGUUAAGAAUUUACAAAGCUGUACAAAAUAACUUACAACAGAGGAUUGAGCAUCA
# B4: chr19:16212804:16212805:+_ENSG00000167460_ENST00000300933|hu_mus|hu_hu_hu_mus_False|38_88 (ssRNA)
# RNA: GGGAGUUCUACAGUCCGACGAUCAACAAUUCUGGAGUGAAGGAAAGCAUCAAGGAUGAACAGCAUUAAAGCUCAGUCAGAAGGCACAUGGGCAACAAUGACUAUUUCAGCAUUCUCGCUUGGAAUGCUUAAAGACAAUCUGUUCAACAGAGGAUUGAGCAUCA
# B5: chr16:17389515:17389516:-_ENSMUSG00000041720_ENSMUST00000036161|mus_hu|FALSE|FALSE (ssRNA)
# RNA: GGGAGUUCUACAGUCCGACGAUCUCAGAUUCAAUCAGAAAAAUGCCCAAUGCAAUCACUGCAUCUCUCCGUCUUUCAUCUAACUGGAAGAUCCCAUGGAAAUCCACUGGACACAUGCAAAGAAGCUUUUGGACCUUCUCCAAGCAACAGAGGAUUGAGCAUCA
# B6: chr1:45478652:45478653:+_ENSG00000126088_ENST00000246337|hu_hu|FALSE|FALSE (ssRNA)
# RNA: GGGAGUUCUACAGUCCGACGAUCGCAGGCCUCAGGAGAGCGACACGUGCUGAAAAAGUCCUGGGCAGCCCGGGUUUCCCUAAACUCUGGUAAGUAACGGCCUGCCUGGCGCAUGCACCAAACGGGAGUGUAGUCUGUUUCCUCCAACAGAGGAUUGAGCAUCA
# B7: chr10:112362727:112362728:-_ENSMUSG00000074748_ENSMUST00000099276|mus_hu|motif|central (ssRNA)
# RNA: GGGAGUUCUACAGUCCGACGAUCGAUCCCAGCAUGCGAUAAUGCCAGGCAGUGGUCCCUGGGCAUGCGAUGGUGGGAACGGAUGUAUGGAAGAAAAAGCCACAAACCACAGAAAUUUUAAAGAACCCCCCCCUUCCCCCAUAACAACAGAGGAUUGAGCAUCA
# B8: chr14:78183846:78183847:+_ENSG00000119705_ENST00000557342|hu_hu|hu_hu_hu_mus_False|88_88 (ssRNA)
# RNA: GGGAGUUCUACAGUCCGACGAUCUCUCAGAAAUCUUUCUUCAUCAGCAUCAUCAGAUCCGUGCAAAGCCUUUGCUCUUUGAGCUUGAACGUGGAUCUAUGGGAGGGAAAGCACUGUCAGAAAAGGUAAUUUUUUUUUUAAAGACAACAGAGGAUUGAGCAUCA
# B9: 2656068_2656188_392_CDS_ENSG00000101596_ENST00000320876|human|control|control (ssRNA)
# RNA: GGGAGUUCUACAGUCCGACGAUCGGACUCCUUUUCGCGCCGAUCAAACAAGUACACCGUCCUGUGGCCGACGCCUCCGCCAUCCUCCUCAGUCCCCACAGAGGCCCCACCAGGCCCGCCGCCGUCCGCCGCUGCCAUAUUGGGCAACAGAGGAUUGAGCAUCA
# B10: chr2:179515052:179515053:+_ENSMUSG00000000305_ENSMUST00000000314|mus_hu|mus_mus_mus_hu_False|58_78 (ssRNA)
# RNA: GGGAGUUCUACAGUCCGACGAUCGCUGUCCCAUGCAGUCACCGUGAACGCCACCUGCUCUGAGGGGACCUGCAGCUCCCUAGUGGCGAAGACUGUCCCAUCUGCCCCAACUUUGAAGUCCAUGCUGUUGGUCUCAUAUUGUGUCAACAGAGGAUUGAGCAUCA
# B11: chr13:76104392:76104393:-_ENSG00000188243_ENST00000355801|hu_mus|motif|central (ssRNA)
# RNA: GGGAGUUCUACAGUCCGACGAUCAUACUUGAGAGAUCUGCAGCUGUCAGAGCUCACAGCCAUGCCCAGUUUCCACUGAAAAUCGGUAAGCUGGCCCGUGACCUCCGACUUGGCAUCCAGCACGGGCUCCCUGAACCCAGACUCCAACAGAGGAUUGAGCAUCA
# B12: chr14:66974463:66974464:+_ENSMUSG00000022044_ENSMUST00000074523|mus_hu|mus_mus_mus_hu_False|1_1 (ssRNA)
# RNA: GGGAGUUCUACAGUCCGACGAUCUUGUAGGACGACUUAUUCAGGGGAUCGGCCAGGAAGCAGGAGCAGAACAAGGACACCAGCGGGAGCUCCUUCAUCUUCUCUUUGUAGGCAGCAAGGGUCAUGUUUCUGGGAUCCUGGUGGCAACAGAGGAUUGAGCAUCA
# B13: 55349184_55349304_3716_3pUTR_ENSMUSG00000021488_ENSMUST00000099490|mouse|control|control (ssRNA)
# RNA: GGGAGUUCUACAGUCCGACGAUCGGAUCUGCUGCUGAGUCCUCAGGUUUACUUGUAGGAGGAGCUCUUUGUUCUAAGUAGUCUUCCCGGGCCUUCUGCACAGCGUCAGCAGGAAGUAAGACUCCAAAAGCACCCUCCGAGUUUCAACAGAGGAUUGAGCAUCA
# B14: chr5:38529146:38529147:-_ENSMUSG00000029126_ENSMUST00000031009|mus_hu|FALSE|FALSE (ssRNA)
# RNA: GGGAGUUCUACAGUCCGACGAUCAAAAAUUAAAGUAGCUCAAGCUUACCAGAAAUUACAUUUCCACUUUUCCCACCCAGCUCAUUUCUUUAAAAACUAAUGGGGCUAUUGGUGCAAAUUUAUUCAUAAUAGAAGUGAACCAGACAACAGAGGAUUGAGCAUCA
# B15: 50586550_50586670_1272_3pUTR_ENSG00000204977_ENST00000378182|human|control|control (ssRNA)
# RNA: GGGAGUUCUACAGUCCGACGAUCAUUCUUCUUUUGAUCCAGUGUGUGUUGUAACUUCUCAAAAAAUUCCUUCACUUUAUCUGAAUCUUUAGUCAGUAACUGUAGGGAUUUCCUCUUACUAGUUUCCAAGGUAUCCAAGCGAGACAACAGAGGAUUGAGCAUCA
# B16: chr1:58468927:58468928:-_ENSMUSG00000026034_ENSMUST00000148330|mus_mus|mus_mus_mus_hu_False|88_88 (ssRNA)
# RNA: B3 RNA with C87A, A93C, U94A, G95U, U96G
# B17: chr16:46990514:46990515:-_ENSG00000069345_ENST00000317089|hu_hu|motif|central (ssRNA)
# RNA: GGGAGUUCUACAGUCCGACGAUCAACCCAUUGUGUGCAAAGCCCAUUUUUUUCCAUGCAUCUAAAUGAUAGAUACAGGCGGUGAAAUUCUUUAUUCUAUUUGUAGCAGCUUAUGCAGGUGCAGCCAAACACAAAGCUUCAGGACAACAGAGGAUUGAGCAUCA
# B18: chr4:107252891:107252892:+_ENSG00000164022_ENST00000394701|hu_hu|FALSE|FALSE (ssRNA)
# RNA: GGGAGUUCUACAGUCCGACGAUCAGGGUGUUUUCUAGCAGUUAUGAUGCAACCAAUUCGAAGAUCCAGACGGGAAACAUCUAUUGGCUUAGAGUCGGCACUUCCAGCUAUUGAUUGCUGUUUUUUCUCCUUCUUCUCUCCUUUCAACAGAGGAUUGAGCAUCA
# B19: chr1:60041781:60041782:+_ENSMUSG00000041040_ENSMUST00000036540|mus_hu|mus_mus_mus_hu_False|48_48 (ssRNA)
# RNA: GGGAGUUCUACAGUCCGACGAUCAAGUUUACAAUAGUAAAGUAAAUGCAGUAGUGGCAAAUUUUCUUUUAUUUUCCUUCACAAAAGAAAACCUCAGUAACCCAGUCCUAGUCUUGGACAUAGUGAAAGCUAUAAAUUCUGACUCAACAGAGGAUUGAGCAUCA
# B20: 44630555_44630842_6477_CDS_ENSMUSG00000002028_ENSMUST00000002095|mouse|control|control (ssRNA)
# RNA: GGGAGUUCUACAGUCCGACGAUCCGGGUCACCGACUGUGACGAUUUCGUGAGUGGUUGGGGUAGGACUUCCUGCAGAAGGCAAUGGGCGGCAGCCAGGGGACCUCUGUGUAGGCGAGUAGCUGGGUGUUCGAAUCCUAGGGACCAACAGAGGAUUGAGCAUCA
# B21: chr1:39494447:39494448:+_ENSG00000168653_ENST00000372967|hu_mus|hu_hu_hu_mus_False|38_78 (ssRNA)
# RNA: GGGAGUUCUACAGUCCGACGAUCGCACCGAGCGGCGUUCUUAUAGGGCUGUUCUGCACUCUGGAUUAUAAAGUGCCGGUCCAGGCUGAUGCCCAGCCUUUUCUGGAUGUCAAGGAAAGGCAUGGCUCUGCAGUGCCCUUGUCACAACAGAGGAUUGAGCAUCA
# B22: chr12:16048344:16048345:+_ENSG00000023734_ENST00000419869|hu_hu|hu_hu_hu_mus_True|38_38 (ssRNA)
# RNA: GGGAGUUCUACAGUCCGACGAUCAGAUCGUCCAUAAGUAAUAACCAAAAUCUCUCCUUCAGGAAUAUACUCCAUGCUGCUAACAGACAUAUUAAAAUUUAGAGAUUUCACUUCUGUCAUUGUGGCAUGAUCCCAGAGCCGAACCAACAGAGGAUUGAGCAUCA
# Target: T1, UNK ZnF1-3
# Assay: nsRBNS (natural sequence RNA bind-n-seq); RBNS binding buffer (assumed for nsRBNS): 25 mM Tris pH 7.5, 150 mM KCl, 3 mM MgCl2, 0.01% Triton X-100, 500 ug/ml BSA, 20 U/ml SUPERase-In, 4 C; UNK is unkempt and MSI1 is Musashi-1; names of the RNAs are library labels; protein concentration not given here; high values mean tight binding
row,Binder,binding signal [enrichment R]
1,B1,0.67
2,B2,0.563
3,B3,1.68
4,B4,1.25
5,B5,0.888
6,B6,1.04
7,B7,2.14
8,B8,2.04
9,B9,1.28
10,B10,0.759
11,B11,0.268
12,B12,1.77
13,B13,0.755
14,B14,1.36
15,B15,0.599
16,B16,1.36
17,B17,1.28
18,B18,0.59
19,B19,0.78
20,B20,1.52
21,B21,0.736
22,B22,1.4
